Source: the supplement of paper PMC4967469

Columns and labels:
Assay in all cases: Viability of human cancer cell lines after 72 h of drug (GDSC screen)
BMS-509744 = compound: COc1cc(C)c(Sc2cnc(NC(=O)c3ccc(CNC(C)C(C)(C)C)cc3)s2)cc1C(=O)N1CCN(C(C)=O)CC1 [BMS-509744]; conditions: top dose 10.24 µM; top dose inferred
Protocol: (§1)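 Human cancer cell lines in 384-well plates, medium with 10% serum, drug for 72 h over a 256-fold dose range (nine 2-fold or five 4-fold steps up to the top dose). Adherent lines were fixed and stained with the nucleic acid dye Syto60, suspension lines read with resazurin; signal relative to control wells, capped at 0 and 100%. One two-parameter sigmoid per drug and line, fitted in a mixed model over all curves with the slope shared within a line.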

GSK-1904529A = compound: CCc1cc(Nc2nccc(-c3c(-c4ccc(OC)c(C(=O)Nc5c(F)cccc5F)c4)nc4ccccn34)n2)c(OC)cc1N1CCC(N2CCN(S(C)(=O)=O)CC2)CC1 [GSK-1904529A]; conditions: top dose 1.024 µM; top dose inferred
Protocol: as §1

PFI-1 = compound: COc1ccccc1S(=O)(=O)Nc1ccc2c(c1)CN(C)C(=O)N2 [PFI-1]; conditions: top dose 10 µM; top dose inferred
Protocol: as §1

NG-25 = compound: CCN1CCN(Cc2ccc(NC(=O)c3ccc(C)c(Oc4ccnc5[nH]ccc45)c3)cc2C(F)(F)F)CC1 [NG-25]; conditions: top dose 10.24 µM; top dose inferred
Protocol: as §1

Tipifarnib = compound: Cn1cncc1[C@@](N)(c1ccc(Cl)cc1)c1ccc2c(c1)c(-c1cccc(Cl)c1)cc(=O)n2C [Tipifarnib]; conditions: top dose 16 µM; top dose inferred
Protocol: as §1

Cell Line	AUC (BMS-509744)	IC50 (BMS-509744)	AUC (GSK-1904529A)	IC50 (GSK-1904529A)	AUC (PFI-1)	IC50 (PFI-1)	AUC (NG-25)	IC50 (NG-25)	AUC (Tipifarnib)	IC50 (Tipifarnib)
8-MG-BA (glioma, adherent)	0.926	> 10.2 µM	0.988	> 1.02 µM	0.761	3.34 µM	0.879	9.4 µM	0.582	1.66 µM
697 (lymphoblastic leukaemia, suspension)	0.833	4.85 µM	0.988	> 1.02 µM	0.681	1.78 µM	0.553	0.867 µM	0.523	1.14 µM
A3-KAW (B-cell lymphoma, suspension)	0.925	> 10.2 µM	0.991	> 1.02 µM	0.547	0.819 µM	0.708	2.14 µM	0.404	0.578 µM
A4-Fuk (B-cell lymphoma, suspension)	0.638	1.57 µM	0.979	> 1.02 µM	0.774	4.08 µM	0.862	9.37 µM	0.271	0.215 µM
A101D (melanoma, adherent)	0.802	6.46 µM	0.951	> 1.02 µM	0.748	3.86 µM	0.924	> 10.2 µM	0.596	1.95 µM
A253 (head and neck, adherent)	0.951	> 10.2 µM	0.972	> 1.02 µM	0.978	> 10 µM	0.972	> 10.2 µM	0.762	5.59 µM
A388 (skin, adherent)	0.937	> 10.2 µM	0.972	> 1.02 µM	0.876	> 10 µM	0.928	> 10.2 µM	0.483	0.896 µM
A498 (kidney, adherent)	0.975	> 10.2 µM	0.964	> 1.02 µM	0.976	> 10 µM	0.972	> 10.2 µM	0.977	> 16 µM
A704 (kidney, adherent)	0.955	> 10.2 µM	0.977	> 1.02 µM	0.931	> 10 µM	0.727	2.75 µM	0.821	8.89 µM
ALL-PO (lymphoblastic leukaemia, suspension)	0.801	5.32 µM	0.951	> 1.02 µM	0.972	> 10 µM	0.292	0.16 µM	0.393	0.499 µM
ALL-SIL (T-cell leukaemia, suspension)	0.771	3.4 µM	0.985	> 1.02 µM	0.878	7.77 µM	0.051	< 0.04 µM	0.425	0.643 µM
BB30-HNC (head and neck, adherent)	0.858	8.12 µM	0.968	> 1.02 µM	–	–	0.879	10.1 µM	0.408	0.563 µM
BC-3 (B-cell lymphoma, suspension)	0.952	> 10.2 µM	0.984	> 1.02 µM	–	–	0.854	6.79 µM	0.678	2.95 µM
CAL-148 (breast, suspension)	0.972	> 10.2 µM	0.988	> 1.02 µM	–	–	0.96	> 10.2 µM	0.528	1.19 µM
CESS (acute myeloid leukaemia, suspension)	0.933	> 10.2 µM	0.99	> 1.02 µM	0.901	9.7 µM	0.853	6.29 µM	–	–
D-247MG (glioma, adherent)	0.903	> 10.2 µM	–	–	0.918	> 10 µM	0.891	> 10.2 µM	–	–
D-336MG (glioma, adherent)	0.768	4.93 µM	–	–	0.832	9.06 µM	0.847	> 10.2 µM	–	–
DJM-1 (skin, adherent)	0.929	> 10.2 µM	0.989	> 1.02 µM	–	–	0.945	> 10.2 µM	0.843	11.2 µM
DOHH-2 (B-cell lymphoma, suspension)	0.879	10.1 µM	0.985	> 1.02 µM	–	–	–	–	0.772	6.06 µM
EHEB (lymphoid neoplasm, suspension)	0.96	> 10.2 µM	0.978	> 1.02 µM	0.968	> 10 µM	–	–	0.765	8.59 µM
GA-10 (Burkitt lymphoma, suspension)	0.802	4.13 µM	–	–	0.735	2.57 µM	–	–	–	–
GCIY (stomach, adherent)	0.896	> 10.2 µM	0.97	> 1.02 µM	–	–	0.857	10.1 µM	0.771	6.91 µM
H-EMC-SS (chondrosarcoma, adherent)	0.974	> 10.2 µM	0.98	> 1.02 µM	–	–	0.666	2.14 µM	0.908	> 16 µM
HCC1599 (breast, suspension)	0.948	> 10.2 µM	0.982	> 1.02 µM	–	–	0.868	> 10.2 µM	0.789	8.21 µM
HCC-33 (small cell lung carcinoma, adherent)	0.965	> 10.2 µM	0.986	> 1.02 µM	–	–	0.961	> 10.2 µM	0.863	14.1 µM
HEL (acute myeloid leukaemia, semi-adherent)	0.909	10.2 µM	0.992	> 1.02 µM	–	–	0.831	5.02 µM	0.365	0.454 µM
IM-9 (myeloma, suspension)	0.924	> 10.2 µM	0.979	> 1.02 µM	0.924	> 10 µM	–	–	0.848	9.52 µM

By IC50 is meant the dose at which the fit gives 50% viability; fits outside the tested doses are given as limits. AUC, from the same fit, is the share of area under the viability curve across the 256-fold dose range: 1 means no effect, lower means more sensitive. Where the top dose is marked as inferred, it comes from the curve model; the source does not state it.
